This is an account of results in the RNAGym collection of RNA variant scans (doi:10.1093/nar/gkz1192).

Read counts are not given, so values of variants with three or more changes are uncertain.

The chains are these.
B1: CPEB3 Ribozyme (parent)
chain: UAACAGGGGGCCACAGCAGAAGCGUUCACGUCGCAGCCCCUGUCAGAUUCUGGUGAAUCUGCGAAUUCUGCUGUAUAUCUC

The variants in this data set derive from B1. Put plainly: self-cleavage, relative activity (ratio to wild type); higher = more cleavage; in vitro, sequencing. Summed up: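 Libraries of CPEB3 self-cleaving ribozyme mutants came from rounds of error-prone PCR and carried barcodes, which DNA sequencing matched to variants. In vitro transcription used T7 RNA polymerase at 37°C for 5 hours, with a further 15 min in DNase I before EDTA stopped the reaction; the ribozymes cleaved during both steps. The RNA was reverse transcribed with template switching and sequenced on Illumina. Relative activity is the cleaved/total read fraction of a variant divided by that of the unmutated ribozyme, averaged over three batches with at least 5 reads.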
As for UAGCAUGGGGCCACAGCAGAAGCGUUCACGUCGCAGCCCCUGCCAGAUUCUGGUGAAUCUGCGAAUUCUGCUGUAUAUCUC, the self-cleavage worked out at 0.44. For UAGCAUGGGGCCACAGCUGAAGCGCUCACGUCGCAGCCCCUGCCAGAUUCUGGUGAAUCUGCGAAUUCUGCUGUAUAUCUC the value was 0.48; for UAGCAGCGGGCCACAGCAGAAGCGUUCACGUCGCAGCCCUCGUCAGGUUCUGGUGAAUCUGCCAAUUCUGCUGUAUAUCCC, 0.06; for UAGCAGGGUGCCACAGCAGAAGCGUUCACGUCGCUGCCCCUGUCAGAUUCUGGUGAAUCUGCGAAUUCUGCUGUAUACCUC, 0.07. Next, UAGCAGGAGGCCACAGCAAAAGCGUUCACGUCGCAGCCCCUGUCAGAUUCUGGUGAAUCUGCGGAUUCUGCUGUGAAUCUC: 0.09.

In the case of UAGCAGUGGGCCACAGCAGAAGCGUUCACGUCGCAGCCCCUGUCAGAUUCUGGCGAAACUGCGAAUUCUGCUGUAUUUCUC, the self-cleavage came out at 0.34. As to UAGCAGAGGGCCACAGCAGAAGCGUUCACGUCGCAGCCCCUGUCAGAUUGCGGUGAAUCUGCGAGUUCUGCUGUAUAUCUC, the self-cleavage worked out at 0.08. For UAGCAGGGAGCCUCAGCAGAAGCGUCCACGUCGCAGCCCCUGUCAGAUUCUGGUGAAUCUGUGAAUUCUGCUGUAUAUCUC the value was 0.11. Take UAGCAGUGGGCCACAGCAGAAGCGUUCGCGUCGCGGCCCCUGACAGAUUCUAGUGAAUCUGCGAAUUCUGCUGUAUAUCCC: the self-cleavage came to 0.08. For the variant UAGCAGGAGGCCACAGCAGAAGCGUUCACGUCGUAGCCCCUGUCAGAUUCUGGUGAAUCUGCGAAUUCUGCUGUAUAUCUC, the self-cleavage worked out at 0.24. Turning to UAGCAGCGGGCCGCAGCAGAAGCGUCCACGUCGCAGCCCCUGUCAGAUUCUGGUGAAUCUGCGCAUUCUGCUGUAUAUCUC, the self-cleavage worked out at 0.1.

Turning to UAGCAGCGGGCCACAGCAGAAGCGUUCACGUCGCAGCCCCUGUCAGUUUCUGGUGAAUCUGCGAAUUCUGCUGUAUAUCUC, the self-cleavage was 0.13.

Regarding UAGCAUGGGGCCACAGCAGAAGCGCUCACGUCGCAGCCCCUGUCAGAUUCUGGUGAAUCUGCGAAUUCUGAUGUAUAUCUC, the self-cleavage turned out to be 0.32. Next, UAGCAGCGGGCCACUGCAGAAGCGUUCACGUCGCAGCCCCUGUCAGAUUCAGGUGAAUCUGCGAAUUCUGCUGCAUAUCUC: 0.41; UAGCAGGGAGCCCCAGCAGAAGCCUUCACGUCGCGGCCCCUGUCAGAUUCUGGUGAAUCUGCGAAUUCUGCUGUAUUUCUC: 0.69; UAGCAGCGGGCCGCAGCAGAAGCGUUCACGUCGCAGCCCCUGACAGAUUCUGGUGAACCUGCGAAUUCUGCUGUAUAUCUC: 0.08. For UAGCAGGAGGCCACAGCAGAAGCGUUCACGUCGCAGCCCCUGUCAGAUUCUGGAGAAUCUGCGAAUUCUGCUGUAUAUCUC the value was 0.48. Next, UAGCAGAGGGCCACAGCAGAGGCGUUCACGUCGCAGCCCCUGUCAGAUUCUGGUGAAUCUGCGAAUUCUGCUGUAUAUCUC: 0.12; UAGCAGCGGGCCACAGCAGAGGCGUUCACGUCGCAGCCCCUGUCAGAUUCAGGUGAAUCUGCGAAUUCUGCUGUAUAUCUC: 0.09; UAGCAGCGGGCCACAGCGGAAGCGUUCACGUCGCAGCCCCUGUCAGAUUCUGGUGAAUCUGCGAAUUCUGCUGUAUGUCUC: 0.74. For UAGCAGGGAGCCACAGCAGAUGCGUUCACGUCGCAGCCUCUGUCAUUUUCUGGUGAAUCUGCGAAUUCUGCUGUAUAUCUC, the self-cleavage stood at 0.22. Next, UAGCAGAGGGCCACUGCAGAAGCGUUCACGUCGCAGCCCCUGUCAGACUCUGGUGAAUCUGCGAAUUCUGCUGUAUAUCUC: 0.08; UAGCAGGGAGCCACAGCAGAAGCGUUCAUGUCGCAGCCCCAGUCAGAUUCUGGUAAAUCUGCGAAUUCUGCUGUUUAUCUC: 0.05; UAGCAGGAGGCCACAGCAGAAGCGUUCUCGUCGCAGCCCCCGUCAGAUUCUGGUGAAUCUGCGAAUUCUGCAGAAUAUCUC: 0.11. For UAGCAGUGGGCCACAGCAGAAGCGUUCACGUCGCAGCCCCUGUCAGAUUCUGGUGAAUCUGCGAAUUCUGCUGUGUAUCUC the value was 0.5. For UAGCAGAGGGCCACAGCAGAAGCGUUCACGUCGCAGCCCCUGUCAGAUUCUGGUGAAUCUGCGAAUUCUGUCGUAUAUCUC, the self-cleavage was 0.24.

For the variant UAGCAUGGGGCCACAGCAGAAGCGUUCACGUCGCAGCCCCUGUCAGAUUCUGGUGAAUCCGCGAAUUCUGCUGUAUAUCUC, the self-cleavage came to 0.05. For UAGCAGGAGGCCACAGCAGAAGCGUUCACGUCGCGGGCCCUGUCGGAUUCUGGUGAAUCUGCGAAUUCUGCCGUAUAUCUC the value was 0.07. Consider UAGCAGGAGGCCACAGCAGAAGCGUUCACGUCGCAGCCCCUGUCACAUUCUGGUUAAUCAGCGAAUUCUGCCGUAUAUCUC, for which the self-cleavage amounted to 0.38. Turning to UAGCAGGUGGCCACAGCAGAAGCGUUCACGUCGCAGCCCCUGUCAGAUUCUAUUGAAUCUGCGAAUACUGCUGUAUAUCUC, the self-cleavage came out at 0.1. Consider UAGCAGGUGGCCACAGCAGAAGCGUUCACGUCGCAGCUCCUGUCAGAUUCUGGAGAAUCUGCGAAUUCUGCUGUAUAUCUC, for which the self-cleavage stood at 0.06. Next, UAGCAGGAGGCCACAGCAGAAGCGUUCACGUCGUAGCCCCUGUCGGAUUCUGGUGAAUCUGCGAAUUCUGCUGUAUAUCUC: 0.06. Take UAGCAGGAGGCCACUGCAGAAGCGUUCACGCCGCUGCCCCUGUCAGAUUCUGGUGGAUCUGCGAAUUCUGCUGUAUAUCUC: the self-cleavage is 0.03. Next, UAGCAUGGGGCCACAGCAGAGGCGUUCACGUUGCGGCCCCUGUCAGAUUCUGGUGAAUCUGCGAAUUCUGCUGUAUAUCCC: 0.11. Next, UAGCAGGUAGCCACAGCUGAAGCGUUCACGUCGCAGCCCCUGUCAGAUUCUGGUGAAUCUGCGAAUUCUGCUGUAUAUCUC: 0.13. Next, UAGCAGAGGGCCACGGUAGAGGCGUUCACGUCGCAGCCUCUGUCAGAUUCUGGUGAGUCUGCGAAUUCUGCUGUAUAUCUC: 0.05; UAGCAGAGGGCCACAUCAGAAGCGUUCACGUCGCUGCCCCUGUCAGAUUCUGGUGAAUCUGUGGAUUCUGCAGUAUAUCUC: 0.09; UAGCAGAGGGCCACAGCAGUAUCGUUCACGUCGCAGCCACUGUCAGAUUCUGGUGAAUCUGCGGAUUCUGCUGUAUUUCUC: 0.05. For the variant UAGCAGGGAGCCACAGCAGAGGCGUUCACGUCGCAGCCCCUGUCAGAUUCUGGCGAAUCUGCGGAUUCUGCUGUAAAUCUC, the self-cleavage was determined as 0.08. Next, UAGCAGAGGGCCACAGCAGAGGCGUUCACGUCGCAGCCCCUGUCAGAUUCUGGUGAAUCCGCGAAUUCUGCUGUAUAUCUC: 0.09. Next, UAGCAGGGAGCCACGGCAGAGGCGUUCACGUCGCAGCCCCUGUCAGAUUCUGGUGAAUCUGCGAAUUCUGCAGUAUAUCUC: 0.1. As for UAGCAGGAGGCCACAGCAGAAGCGUUCACGUCGCAGCCCCUGUCGGAUUCUGGUGAAUCUGCGAAUUCUGCUGUAUAUCUC, the self-cleavage amounted to 0.09.

For UAGCAGUGGGCCACAGCAGAAGCGUUCACGUCGCAGCCCCUGUCAGAUCCUGGUGAAACUGUGAAUGCUGCUGUAUAUCUC, the self-cleavage worked out at 0.04. Next, UAGCAUGGGGCCUCAGCAGAAGCGUUCACGUCGCAGCCCCUGUCAGAUUCUGGUGAAUCUGCGAAUUCUGCUGUGUAUCCC: 0.17; UAGCAGGGAGCCACAGCAGAAGCGUUCACGUCGCAGCCCCUGUCAGAUUCUGGUGAAUCUGCGAAUUCUGCUGUAUAUCCC: 0.15; UAGCAGGCGGCCACAGCAGAAGCGUACACGUCGCAGCCCCUGUCAGAUUCUGUUGAAUCUGCGAAUUCUGCUGUAUAUCCC: 0.49.

Take UAGCAUGGGGCAACAGCAGAAGCGUCCACGUCGCAGCCCCUGUCAGAUUCUGGUGAAUCUGCGAAUUCUGCUGUAUAUCUC: the self-cleavage is 0.43. For UAGCAGGAGGCCACAGCAGAAGCGUUCACGUCGCUGCCCCUGUCAGAUUCUGGUGAAUCCGCGAAUUCAGCCGUAUAUCUC the value was 0.05; for UAGCAGGAGGCCACAGCAGUAGCGUUCACGUAGCAGCCCCUGUCAGAUUCCGGUGAAUCAGCGAAUACUGCUGUAUAUCUC, 0.06; for UAGCAGCGGGCCACAGCAGAAGCGUUCACGUCGCAGCCCCUGUCAGAUUCUGGUGAAUCUGCGAAUUCUGCAGUAUAUCCC, 0.81. Next, UAGCAGGGAGUCACAGCAGAAGCGUGCACGCCGCAGCCCUUGUCAGAUUCUGGUGAAUCUGCGAAUUCUGCUGGAUAUCUC: 0.04. For UAGCAGGAGGCCGCAGCGGAAGCGUUCACGUCGCAGCCCCUGUCAGAUUCUGGUGAAUCUGCGAAUUCUGCUGUAUAUCUC the value was 0.58; for UAGCAGGGAGCCACAGCAGAAGCGUUCACGUCGCAGCCCCUGUCAGAUUCUGGUGAGCCUGCGAAUUCUGCUGUAUAUCUC, 0.47; for UAGCAGGGUGCCACAGCAGAAGCGUUCUCGUCGCAGCCCCUGUCAGAUUCUGGUGAGUCUGCGGAUUCUGCUGUAUAUCUC, 0.27. Turning to UAGCAGGAGGCCUCAGCAGAAGCGUUCACGUCGCAGCCCCUGUCAGAUUCUGGUGAAUCUGCGAAAUCUGCUGUAUAUCAC, the self-cleavage was 0.24.

As for UAGCAGGAGGCCGCAGCAGAAGCGUUCACGUCGCAGCCCCUGUCAGAUUCUGGUGAAUCUGCGAAUUCUGCUGUAUAUCUC, the self-cleavage was 0.61. Next, UAGCAGGUGGCCACAGCAGAAGCGUUCACGUCGCAGCCCCUGUCAGAUUCUGGUGAAUCUGCGAAUUCUGCUGUUUAUCUC: 0.43.

For UAGCAGUGGGCCACGGCAGAAGCGUCCACGUCGCAGCCCCUGUCCGAUUCUCGUGGAUCUGCGAAUUCUGCUGUAUAUCUC, the self-cleavage stood at 0.33. Next, UAGCAGAGGGCCACAGCAGAAGCGUUCACGUCGCAGCCCCUGUCAGACUCCGGUGAAUCUGCGAAUUCUGCUGUAUAUCUC: 0.29; UAGCAGUGGGCCACAGCAGAAGCGUUCUCGUCGCAGCCCCUGUCAGGAUCUGGUGAAUCUGCGAAUUCUGCUGUAUAUCUC: 0.07; UAGCAGGGAGCCUCAGCAGAAGCGUUCACGUCGCAGCCCCUGUCAGAUUCUGGUGAAUCUGCGAAUUCUGCUGUAAAUCUC: 0.75. UAGCAGGGAGCCACAGCAGAGGCGUUCACGUCGCAGCCCCUGUCAGAUUCUGGUGAACCUGCGAAUUCAGCUGUAUGUCUC: the self-cleavage was determined as 0.06.

Turning to UAGCAGCGGGCCACGGCAGAAGCGUUCACGACGCAGCCCCUGUCAGAUUCUGGCGAAUCUGCGAAUUCUGCUGAAUUUCUC, the self-cleavage was 0.1. For UAGCAGAGGGCCACAGCAGGAGCGUUCACGUCGCAGCCCCUGUCAGAUUCUGGUGAAUCUGCGAACUCUGCUGUAUAUCUC the value was 0.27; for UAGCAUGGGGCCACUGCAGAAGCGCUCAUGUCGCAGCCCCUGUCGGAUUCUGGUGAAACUGCGAAUUCUGCUGUAUAUCUC, 0.08. For the variant UAGCAGGAGGCCACAGCAGAAGCGUUCACGUCGCGGCCCCAGUCAGAUUCUGGUGAAUCUGCGAAUUCUGCAGUAUAUCUC, the self-cleavage was determined as 0.05.

Turning to UAGCAUGGGGCCACAGCAGAAGCGCUCACGGCGCAGCCCCUGUCGGAUUCUAGUGAAUCUGCGAAUUCUGCUGUAUAUCUC, the self-cleavage amounted to 0.06. As for UAGCAGGGUGCCACGGCAGAAGCAUUCACGACGCAGCCCCUGUCAGAUUCUGGUGAAUCUGCGAAUUCUGCUGUAUACCCC, the self-cleavage was found to be 0.07.
